One molecule from patent publication US20210230292A1 (DIATHEVA S R L, published 2021) can be followed below.

The assay deals with T1, human CD99ecd/GST (human, UniProt P14209 23-122).
T1 construct: Expressed in E. coli BL21(DE3), purified on Glutathione Sepharose; also called CD99ecd/GST antigen; recombinant CD99; not shown: glutathione-S-transferase as encoded by vector pGEX-2T (GE Healthcare); CD99ecd fused downstream of it through the BamHI
T1 sequence: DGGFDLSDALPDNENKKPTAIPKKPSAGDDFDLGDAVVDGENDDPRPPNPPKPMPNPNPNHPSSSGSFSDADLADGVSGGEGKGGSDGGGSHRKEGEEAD
The assay is described as follows: competitive ELISA (Rath 1988), CD99ecd/GST coated and soluble CD99ecd/GST as inhibitor. As to the method: The binding affinity, expressed as the dissociation constant (kd) of scFv C7, C7dAbd, C7IgG4 and C7IgG1 for CD99, was determined by analysing the saturation of binding at equilibrium with a competitive ELISA assay according to the procedure described in Rath S 1988 with small variations. […] For this purpose, 96-well plates were sensitized by distributing 500 ng/well of CD99ecd/GST diluted in 0.5M carbonate buffer, pH 9.6, and incubating ON at 4° C. After 3 washes with PBS supplemented with 0.05% V/V of Tween20, the plates were blocked with a 1% W/V solution of BSA in PBS (PBSB), pH 7.4, for 60 min. at 37° C. After washing, the plates were incubated for 1 hour at 37° C. with serial dilutions of C7 (from 200 μg/ml to 0.03 μg/ml in triplicate) diluted in PBSB and dispensed (100 μl/well). The plates were incubated at 37° C. for 90 minutes. After washing a dilution of polyclonal anti-scFv diluted 1:500 in PBSB was dispensed, 100 μl/well, and incubated for 60 minutes at 37° C. […]
A competitive ELISA assay was then set up. […] The scFvC7 and C7 diabody signal was determined by dispensing, in a first step, a polyclonal anti-scFv antibody generated in rabbits immunized with scFvC7 and diluted 1:500 v/v in PBSB and subsequently with an anti-rabbit HRP diluted 1:1000 v/v. […]
(In general: In an ELISA, binding on a coated surface is turned into a signal by an enzyme label.)

B1: C7 diabody (C7dAbd) (other)
scFv: [about 100 residues omitted here]SHKRFDYWGQGTLVTVSRGGGGSSELTQDPAVSVALGQTVRITCQGDSLRSYYASWYQQKPGQAPVLVIYGKNNRPSGIPDRFSGSSSGNTASLTITGAQAEDEADYYCNSSFPRTSSVVFGGGTKLTVLG
notes: Dimeric derivative of scFv C7 (bivalent scFv, 50 kDa), linker shortened from 15 to 5 amino acids; made in E. coli from pET22b(+); Used FITC-labelled in the ex vivo and confocal tests; also called C7 in the diabody format; C7dAbd-FITC
A word on the Kd: it is the equilibrium constant for the complex coming apart. A lower Kd goes with a tighter complex. Consider B1, for which the affinity, expressed as Kd, was 489 nM.
